The full ranking holds about 33,000 sequences; the median of “E-score (-0.5 to 0.5)” is about -0.035, and the highest 2% start at about 0.35. Some of the results follow.

For this assay, the target named is T1, Pdr3 (UniProt P33200).
T1 sequence: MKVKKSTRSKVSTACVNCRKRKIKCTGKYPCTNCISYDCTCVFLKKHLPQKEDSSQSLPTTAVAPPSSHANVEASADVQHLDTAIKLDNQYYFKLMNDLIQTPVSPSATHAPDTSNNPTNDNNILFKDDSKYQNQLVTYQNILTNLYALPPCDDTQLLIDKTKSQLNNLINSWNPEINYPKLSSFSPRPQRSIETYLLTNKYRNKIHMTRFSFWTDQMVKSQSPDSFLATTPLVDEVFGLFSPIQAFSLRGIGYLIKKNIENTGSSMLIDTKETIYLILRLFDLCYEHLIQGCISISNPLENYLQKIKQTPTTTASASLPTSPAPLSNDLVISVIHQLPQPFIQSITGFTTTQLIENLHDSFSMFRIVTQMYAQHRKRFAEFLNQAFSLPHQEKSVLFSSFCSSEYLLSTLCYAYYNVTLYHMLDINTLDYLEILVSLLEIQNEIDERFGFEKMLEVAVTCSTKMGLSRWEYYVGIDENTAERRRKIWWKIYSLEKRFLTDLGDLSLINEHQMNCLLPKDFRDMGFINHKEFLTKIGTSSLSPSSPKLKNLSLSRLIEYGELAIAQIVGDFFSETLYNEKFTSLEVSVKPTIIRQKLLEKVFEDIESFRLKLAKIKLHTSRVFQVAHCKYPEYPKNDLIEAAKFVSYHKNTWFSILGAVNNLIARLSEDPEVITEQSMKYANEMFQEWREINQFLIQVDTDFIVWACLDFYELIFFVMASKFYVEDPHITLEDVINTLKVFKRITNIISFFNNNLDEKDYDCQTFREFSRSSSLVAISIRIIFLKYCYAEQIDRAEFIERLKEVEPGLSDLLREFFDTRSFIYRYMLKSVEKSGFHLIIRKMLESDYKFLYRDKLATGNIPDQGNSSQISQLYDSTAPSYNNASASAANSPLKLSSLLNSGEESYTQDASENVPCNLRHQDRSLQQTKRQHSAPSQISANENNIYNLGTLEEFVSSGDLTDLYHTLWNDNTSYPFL
Briefly: PBM E-score (8-mer binding enrichment) (E-score (-0.5 to 0.5)); higher = stronger / more preferred TF binding; most listed sequences are background and not binding sites. As to conditions: protein concentration: 200 nM; construct: GST-full length. The essentials: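 GST-tagged yeast TFs (full-length or DNA-binding domain) were made by PURExpress in vitro transcription/translation and applied at about 100-200 nM to universal all-10-mer Agilent arrays. The arrays were made double-stranded by primer extension, on fresh or once-stripped slides. Bound protein was detected with fluorescent anti-GST, and scans were normalised with masliner. Each ungapped eight-base word, pooled with its reverse complement, received an E-score (modified Wilcoxon-Mann-Whitney statistic) from the Universal PBM Analysis Suite.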
Take GAGGGGGC: the “PBM E-score” value was -0.242. Turning to ATACGCCC, the “PBM E-score” value was -0.0342. CATTACTA: the “PBM E-score” value is -0.0628. As to AGGTTCTA, the “PBM E-score” value is -0.25. Consider ATCCACGA, for which the “PBM E-score” value was -0.119. As to CAAGCAGC, the “PBM E-score” value was -0.191.

In the case of ACGGTCTA, the “PBM E-score” value is -0.181. Regarding ACGTATTG, the “PBM E-score” value is -0.0565. As to GCACGGAC, the “PBM E-score” value amounted to 0.356. TGCTTACA: the “PBM E-score” value is -0.274. For CGCGTCTA, the “PBM E-score” value is -0.0418.

With AGCAACAG, the “PBM E-score” value is -0.102. With GCTCCGGA, the “PBM E-score” value came to 0.461. Turning to AGAAGGTA, the “PBM E-score” value is -0.0743. Consider AGTTGAGC, for which the “PBM E-score” value was -0.085. Under CTGGCGAA stands -0.0727; under CCACAGGG, -0.176. For the sequence AAGTCGAG, the “PBM E-score” value is -0.262. Under AAAATGCT stands 0.0418.

Regarding ATCAGTGA, the “PBM E-score” value was -0.145. As to GGAGTTAA, the “PBM E-score” value is 0.0523.

As to CGATGTCC, the “PBM E-score” value was found to be 0.213. As to CGTGGTCC, the “PBM E-score” value was found to be 0.00461.

Turning to CCTATGAC, the “PBM E-score” value was -0.258. On to CGAGGCAG, for which the “PBM E-score” value turned out to be 0.034. In the case of ATTTCAAC, the “PBM E-score” value came out at 0.0466. With TCATGCGA, the “PBM E-score” value amounted to 0.0294. As to AAGTTGGG, the “PBM E-score” value was -0.14.

Regarding TACCTCTA, the “PBM E-score” value is -0.124. For the sequence CTCCGAGA, the “PBM E-score” value was determined as 0.274.

Regarding CAGGGAGA, the “PBM E-score” value is -0.24. For ACGACGGA, the “PBM E-score” value is 0.328. Under GGAAACTA stands 0.203.

With ATTTCGCG, the “PBM E-score” value was determined as 0.254.

Regarding AACTCTGC, the “PBM E-score” value is -0.225.

For GTTCATTA, the “PBM E-score” value is -0.0216. Take GTTTAGAA: the “PBM E-score” value was -0.0239. Under CAGTCTTA stands -0.225; under GGCCCGCC, -0.002; under GAAAATAA, -0.117. In the case of CATTGCTC, the “PBM E-score” value is 0.0333. Turning to GAGACCCA, the “PBM E-score” value came to 0.0907. With ACCAGGTG, the “PBM E-score” value was -0.106. For AACTAAGC the value was -0.108; for GAAAACTC, 0.0853. ATTCGTTC: the “PBM E-score” value came to 0.24. Regarding ATCTGAGC, the “PBM E-score” value amounted to 0.0574. Regarding CTGAGATC, the “PBM E-score” value is -0.00796. As for AGAAGGAC, the “PBM E-score” value was -0.216. Under ACCTGACA stands 0.0217; under GGGTGTAC, 0.0547; under ATTACTGG, -0.161. For the sequence ACTATGTG, the “PBM E-score” value is -0.00752. Consider GTAGTCGA, for which the “PBM E-score” value was -0.105. For the sequence AGTACATG, the “PBM E-score” value was -0.066.

In the case of ACTTCCGG, the “PBM E-score” value was found to be 0.42. CAGCGGTC: the “PBM E-score” value is -0.0607. On to ACCTGAAA, for which the “PBM E-score” value was -0.137. Regarding AAGGGAGC, the “PBM E-score” value is -0.109. As to AAGCATGT, the “PBM E-score” value is -0.0953.

Consider GATAAAGC, for which the “PBM E-score” value is -0.143. On to CCCAGTCA, for which the “PBM E-score” value was -0.313. Consider CCGGATCC, for which the “PBM E-score” value amounted to 0.433. As to GGAATTGA, the “PBM E-score” value came to 0.283.

For the sequence ACTAATGA, the “PBM E-score” value was -0.0678. With TCCGCTCA, the “PBM E-score” value worked out at 0.138.

As to ATTGAAAC, the “PBM E-score” value is -0.0481. Under GGGTTACA stands 0.127. For ACGTATTA, the “PBM E-score” value came out at 0.23. Turning to CACTCGTA, the “PBM E-score” value is -0.165. Turning to ATCCTACC, the “PBM E-score” value stood at 0.0184. Consider CTCGCAGA, for which the “PBM E-score” value is -0.226. AGCCGGTG: the “PBM E-score” value turned out to be 0.187. Turning to GAGGGTAC, the “PBM E-score” value is -0.0671. In the case of AGGTGATC, the “PBM E-score” value turned out to be 0.00785. Consider ACGTCCAT, for which the “PBM E-score” value was -0.224. As for AGCGCAGG, the “PBM E-score” value was found to be 0.00633. For CGATCACG the value was 0.0265; for CGGCCACG, 0.0533; for CGCGAAGC, 0.27. For ACAGTCTC the value was -0.169. Take CGGACTAC: the “PBM E-score” value was found to be 0.297. Under CAGCAGGC stands -0.0427; under ACTTAGAG, -0.354. For GCACCTTA, the “PBM E-score” value is -0.0794. For CAGGATTC, the “PBM E-score” value came out at 0.0167. As to TGATCACA, the “PBM E-score” value was -0.0502. For the sequence AGCAATGA, the “PBM E-score” value is -0.0334. Take GGAGTTCA: the “PBM E-score” value stood at 0.117. Under AGCAACGG stands 0.291; under ATGAGGCG, -0.00877. On to ATCGGTTG, for which the “PBM E-score” value is -0.0143. Under ACGATAGT stands -0.215; under CTGGGGGC, -0.253; under TAGAACTA, -0.145. Under CGGCAATA stands 0.0855; under AGCCAGGC, -0.0865. CCTACGTA: the “PBM E-score” value is -0.0731.

In the case of AAATGGCG, the “PBM E-score” value came out at 0.0503. For CTGGATCA the value was -0.163. With CGAATTCA, the “PBM E-score” value came out at 0.17. Under AATCTCAT stands -0.0242; under CTAGGGGA, -0.154.

Consider CAGTCACA, for which the “PBM E-score” value was -0.16. CCGTCTGC: the “PBM E-score” value came to 0.243. Turning to AGCCAAAT, the “PBM E-score” value came to 0.0942. Under AAATGTCG stands -0.114; under TATTACAA, -0.115; under ACAACGAG, -0.131. As for ATGCGGTA, the “PBM E-score” value was 0.0448.
